# Experimental data reported in the supplement of paper PMC12217912.
# The other results are listed elsewhere or left out. The full chains were built here from the parent and the listed change. Values near 0.05 are background.
# B1: TEV protease; numbered along this chain (parent)
# chain: MGESLFKGPRDYNPISSSICHLTNESDGHTTSLYGIGFGPFIITNKHLFRRNNGTLVVQSLHGVFKVKDTTTLQQHLVDGRDMIIIRMPKDFPPFPQKLKFREPQREERICLVTTNFQTKSMSSMVSDTSCTFPSGDGIFWKHWIQTKDGQCGSPLVSTRDGFIVGIHSASNFTNTNNYFTSVPKNFMELLTNQEAQQWVSGWRLNADSVLWGGHKVFMVKPEEPFQPVKEATQL
# Variants of: B1
# Assay: raw area under fraction-flipped curve 0-4 h after induction (AUC4h, not background-subtracted), DNA-recorder readout of cleavage of the substrate (dimensionless); higher = more cleavage of the substrate by the protease variant
# Conditions: temperature: 34 °C; time window: 0-4 h after rhamnose induction
# Experimental: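 In vivo DNA recorder in E. coli TOP10(DE3) ΔrhaA at 34 °C. Each TEVp single-site mutant (parent TEVp 0) is paired with a single-site variant of the 7-mer TEVs (canonical ENLYFQ|S). The substrate sits between flexible linkers in a Bxb1-sfGFP-TEVs-SsrA fusion, so cleavage stabilises Bxb1 and speeds flipping of a recombination array, read by NGS. The value is the raw area under the fraction-flipped curve over 0-4 h after rhamnose induction (AUC4h), with ≥20 reads per time point. It is not background-subtracted; inactive controls average about 0.047.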
# 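Also: Bxb1 expression induced with 0.2% (w/v) L-rhamnose at OD600 near 0.5, cultures sampled hourly, flipped fraction per protease–substrate barcode pair counted by paired-end Illumina sequencing.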
Variant,area with substrate CNLYFQS,area with substrate DNLYFQS,area with substrate FNLYFQS,area with substrate GNLYFQS,area with substrate HNLYFQS,area with substrate KNLYFQS,area with substrate LNLYFQS,area with substrate MNLYFQS,area with substrate PNLYFQS,area with substrate RNLYFQS,area with substrate SNLYFQS,area with substrate TNLYFQS,area with substrate VNLYFQS,area with substrate WNLYFQS,area with substrate YNLYFQS,area with substrate INLYFQS,area with substrate NNLYFQS,area with substrate QNLYFQS
MGESLFKGPRDYNPISSSICHLTNESDGHTTSLYGIGFGPFIITNKHLFRRNNGTLVVQSLHGVFKVKDTTTLQQHLVDGRDMIIIRMPKDFPPFPQKLKFREPQREERKCLVTTNFQTKSMSSMVSDTSCTFPSGDGIFWKHWIQTKDGQCGSPLVSTRDGFIVGIHSASNFTNTNNYFTSVPKNFMELLTNQEAQQWVSGWRLNADSVLWGGHKVFMVKPEEPFQPVKEATQL [I110K],0.0544,0.0633,0.0607,0.0633,0.0773,0.0535,0.0503,0.0587,0.0564,0.0587,0.0555,0.0521,0.059,0.056,0.0416,–,–,–
MGESLFKGPRDYNPISSSICHLTNESDGHTTSLYGIGFGPFIITNKHLFRRNNGTLVVQSLHGVFKVKDTTTLQQHLVDGRDMIIIRMPKDFPPFPQKLKFREPQREERNCLVTTNFQTKSMSSMVSDTSCTFPSGDGIFWKHWIQTKDGQCGSPLVSTRDGFIVGIHSASNFTNTNNYFTSVPKNFMELLTNQEAQQWVSGWRLNADSVLWGGHKVFMVKPEEPFQPVKEATQL [I110N],0.0463,0.0393,0.0247,0.0524,0.0647,0.0535,–,–,–,–,0.0556,–,0.0487,0.0593,0.0472,0.0494,0.042,–
MGESLFKGPRDYNPISSSICHLTNESDGHTTSLYGIGFGPFIITNKHLFRRNNGTLVVQSLHGVFKVKDTTTLQQHLVDGRDMIIIRMPKDFPPFPQKLKFREPQREERIDLVTTNFQTKSMSSMVSDTSCTFPSGDGIFWKHWIQTKDGQCGSPLVSTRDGFIVGIHSASNFTNTNNYFTSVPKNFMELLTNQEAQQWVSGWRLNADSVLWGGHKVFMVKPEEPFQPVKEATQL [C111D],0.073,0.0824,0.057,0.0498,0.0622,0.0604,0.0579,0.0592,0.0573,–,–,–,0.0349,0.053,0.0643,0.0639,–,–
MGESLFKGPRDYNPISSSICHLTNESDGHTTSLYGIGFGPFIITNKHLFRRNNGTLVVQSLHGVFKVKDTTTLQQHLVDGRDMIIIRMPKDFPPFPQKLKFREPQREERIHLVTTNFQTKSMSSMVSDTSCTFPSGDGIFWKHWIQTKDGQCGSPLVSTRDGFIVGIHSASNFTNTNNYFTSVPKNFMELLTNQEAQQWVSGWRLNADSVLWGGHKVFMVKPEEPFQPVKEATQL [C111H],0.0764,0.0822,–,0.0692,0.0824,0.0708,0.0676,0.072,–,0.0631,0.0734,0.0696,–,0.0444,0.0582,0.0593,0.0747,–
MGESLFKGPRDYNPISSSICHLTNESDGHTTSLYGIGFGPFIITNKHLFRRNNGTLVVQSLHGVFKVKDTTTLQQHLVDGRDMIIIRMPKDFPPFPQKLKFREPQREERICLMTTNFQTKSMSSMVSDTSCTFPSGDGIFWKHWIQTKDGQCGSPLVSTRDGFIVGIHSASNFTNTNNYFTSVPKNFMELLTNQEAQQWVSGWRLNADSVLWGGHKVFMVKPEEPFQPVKEATQL [V113M],0.0692,0.0698,–,0.0607,0.0426,0.0628,0.0736,0.0471,–,–,0.0606,0.056,0.0622,–,0.0598,0.0681,0.0587,–
MGESLFKGPRDYNPISSSICHLTNESDGHTTSLYGIGFGPFIITNKHLFRRNNGTLVVQSLHGVFKVKDTTTLQQHLVDGRDMIIIRMPKDFPPFPQKLKFREPQREERICLSTTNFQTKSMSSMVSDTSCTFPSGDGIFWKHWIQTKDGQCGSPLVSTRDGFIVGIHSASNFTNTNNYFTSVPKNFMELLTNQEAQQWVSGWRLNADSVLWGGHKVFMVKPEEPFQPVKEATQL [V113S],0.0513,0.0525,–,–,0.0528,–,0.0449,0.0615,0.0465,–,0.0473,0.0449,0.0692,0.0411,–,0.047,–,–
MGESLFKGPRDYNPISSSICHLTNESDGHTTSLYGIGFGPFIITNKHLFRRNNGTLVVQSLHGVFKVKDTTTLQQHLVDGRDMIIIRMPKDFPPFPQKLKFREPQREERICLVRTNFQTKSMSSMVSDTSCTFPSGDGIFWKHWIQTKDGQCGSPLVSTRDGFIVGIHSASNFTNTNNYFTSVPKNFMELLTNQEAQQWVSGWRLNADSVLWGGHKVFMVKPEEPFQPVKEATQL [T114R],0.0734,0.0888,–,0.0748,0.0726,0.0738,0.0737,–,0.0657,0.0828,–,0.0808,0.0807,–,–,0.0665,–,0.0629
MGESLFKGPRDYNPISSSICHLTNESDGHTTSLYGIGFGPFIITNKHLFRRNNGTLVVQSLHGVFKVKDTTTLQQHLVDGRDMIIIRMPKDFPPFPQKLKFREPQREERICLVTYNFQTKSMSSMVSDTSCTFPSGDGIFWKHWIQTKDGQCGSPLVSTRDGFIVGIHSASNFTNTNNYFTSVPKNFMELLTNQEAQQWVSGWRLNADSVLWGGHKVFMVKPEEPFQPVKEATQL [T115Y],0.0344,0.081,0.0674,0.0665,0.0578,–,–,0.0254,0.0679,–,0.0678,0.0646,0.0577,0.0632,–,0.0714,–,0.0679
MGESLFKGPRDYNPISSSICHLTNESDGHTTSLYGIGFGPFIITNKHLFRRNNGTLVVQSLHGVFKVKDTTTLQQHLVDGRDMIIIRMPKDFPPFPQKLKFREPQREERICLVTTLFQTKSMSSMVSDTSCTFPSGDGIFWKHWIQTKDGQCGSPLVSTRDGFIVGIHSASNFTNTNNYFTSVPKNFMELLTNQEAQQWVSGWRLNADSVLWGGHKVFMVKPEEPFQPVKEATQL [N116L],0.0643,0.079,–,–,–,–,0.0699,–,0.0557,–,–,0.0845,–,0.0741,–,0.0823,–,–
